Reference: the supplement of paper PMC4967469
IC50 is the fitted dose that halves viability relative to control wells, and lower means more sensitive; where the fit passes the top or lowest dose, that dose stands as a limit. AUC is the area under the same curve over the 256-fold range up to the top dose, as a fraction; the more sensitive the line, the further below 1. Any top dose called inferred was derived from the fitted curves, not read from the paper. For some of these results: An entry number marks a drug with two screens in the source, which often give different values.

Key:
Assay in all cases: Viability of human cancer cell lines after 72 h of drug (GDSC screen)
XMD11-85h = compound: COc1cc(C(=O)NC2CCN(C)CC2)ccc1Nc1ncc2c(n1)N(C1CCCC1)CCC(=O)N2C(C)C [XMD11-85h]; conditions: top dose 10 µM; top dose inferred
Experimental: (§1)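 Human cancer cell lines in 384-well plates, medium with 10% serum, drug for 72 h over a 256-fold dose range (nine 2-fold or five 4-fold steps up to the top dose). Adherent lines were fixed and stained with the nucleic acid dye Syto60, suspension lines read with resazurin; signal relative to control wells, capped at 0 and 100%. One two-parameter sigmoid per drug and line, fitted in a mixed model over all curves with the slope shared within a line.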

BMN-673 = compound: Cn1ncnc1[C@H]1c2n[nH]c(=O)c3cc(F)cc(c23)N[C@@H]1c1ccc(F)cc1 [BMN-673]; conditions: top dose 10 µM; top dose inferred
Experimental: as §1

AZD6482 = compound: Cc1cc([C@@H](C)Nc2ccccc2C(=O)O)c2nc(N3CCOCC3)cc(=O)n2c1 [AZD6482]
Experimental: as §1

[1] = top dose 5 µM, screen: GDSC drug entry 1066, top dose inferred
[2] = top dose 5.12 µM, screen: GDSC drug entry 156

Cell Line | AUC (XMD11-85h) | IC50 (XMD11-85h) [µM] | AUC (BMN-673) | IC50 (BMN-673) [µM] | AUC (AZD6482; [1]) | IC50 (AZD6482; [1]) [µM] | AUC (AZD6482; [2]) | IC50 (AZD6482; [2]) [µM]
A427 (non-small cell lung carcinoma, adherent) | 0.965 | > 10 | 0.95 | > 10 | 0.951 | > 5 | 0.668 | 0.944
A2058 (melanoma, adherent) | 0.947 | > 10 | 0.135 | 0.0537 | – | – | 0.859 | 3.54
ABC-1 (lung adenocarcinoma, adherent) | 0.958 | > 10 | 0.79 | 5.51 | 0.963 | > 5 | 0.926 | > 5.12
BE-13 (lymphoblastic leukaemia, suspension) | 0.902 | > 10 | 0.95 | > 10 | 0.937 | > 5 | 0.987 | > 5.12
BHT-101 (thyroid, adherent) | 0.814 | 5.65 | 0.751 | 3.39 | 0.648 | 0.814 | 0.898 | > 5.12
BICR10 (head and neck, adherent) | 0.945 | > 10 | 0.843 | 8.74 | 0.947 | > 5 | 0.848 | 4.71
BT-474 (breast, adherent) | 0.958 | > 10 | 0.96 | > 10 | 0.904 | > 5 | 0.917 | > 5.12
C2BBe1 (large intestine, adherent) | 0.968 | > 10 | 0.903 | > 10 | 0.883 | > 5 | 0.885 | > 5.12
CAL-12T (non-small cell lung carcinoma, adherent) | 0.966 | > 10 | 0.821 | 6.71 | 0.89 | > 5 | 0.915 | > 5.12
CAL-27 (head and neck, adherent) | 0.907 | > 10 | 0.696 | 2.25 | 0.943 | > 5 | 0.877 | > 5.12
CAL-33 (head and neck, adherent) | 0.923 | > 10 | 0.561 | 0.915 | 0.814 | 2.71 | 0.733 | –
CGTH-W-1 (thyroid, adherent) | 0.979 | > 10 | 0.777 | 3.99 | 0.968 | > 5 | 0.84 | 3.48
CHP-212 (neuroblastoma, adherent) | 0.912 | > 10 | 0.254 | 0.132 | 0.919 | > 5 | 0.94 | > 5.12
CL-11 (large intestine, adherent) | 0.951 | > 10 | 0.851 | 9.16 | 0.949 | > 5 | 0.986 | > 5.12
COLO-829 (melanoma, adherent) | 0.967 | > 10 | 0.823 | > 10 | 0.936 | > 5 | 0.765 | 2.8
CP50-MEL-B (melanoma, adherent) | 0.965 | > 10 | 0.768 | 3.71 | 0.93 | > 5 | 0.988 | > 5.12
CS1 (bone, adherent) | 0.98 | > 10 | 0.789 | 5 | 0.953 | > 5 | 0.832 | 3.82
CW-2 (large intestine, adherent) | 0.978 | > 10 | 0.961 | > 10 | 0.972 | > 5 | 0.989 | > 5.12
CaR-1 (large intestine, adherent) | 0.961 | > 10 | 0.775 | 6.21 | 0.76 | 2.67 | 0.896 | > 5.12
D-247MG (glioma, adherent) | 0.964 | > 10 | 0.836 | > 10 | 0.897 | > 5 | 0.796 | 3.48
D-336MG (glioma, adherent) | 0.948 | > 10 | 0.898 | > 10 | 0.702 | 1.37 | 0.66 | 1.02

Cell Line | AUC (XMD11-85h) | IC50 (XMD11-85h) [µM] | AUC (BMN-673) | IC50 (BMN-673) [µM] | AUC (AZD6482; [1]) | IC50 (AZD6482; [1]) [µM] | AUC (AZD6482; [2]) | IC50 (AZD6482; [2]) [µM]
D-423MG (glioma, adherent) | 0.977 | > 10 | 0.79 | 5.58 | 0.722 | 1.56 | – | –
D-566MG (glioma, adherent) | 0.968 | > 10 | 0.465 | 0.503 | 0.777 | 1.98 | – | –
DBTRG-05MG (glioma, adherent) | 0.978 | > 10 | 0.858 | > 10 | 0.938 | > 5 | 0.825 | 3.81
DMS-114 (small cell lung carcinoma, adherent) | 0.964 | > 10 | 0.86 | > 10 | 0.949 | > 5 | 0.973 | > 5.12
DOK (head and neck, adherent) | 0.91 | > 10 | 0.743 | 4.53 | 0.669 | 1.17 | 0.738 | 2.21
DOV13 (ovary, adherent) | 0.953 | > 10 | 0.702 | 2.55 | 0.845 | 4.5 | – | –
Daudi (Burkitt lymphoma, suspension) | 0.876 | 7.76 | 0.652 | 1.55 | 0.971 | > 5 | 0.691 | 1.01
DoTc2-4510 (cervix, adherent) | 0.969 | > 10 | 0.867 | 8.27 | 0.974 | > 5 | 0.892 | > 5.12
EMC-BAC-2 (lung adenocarcinoma, adherent) | 0.921 | > 10 | 0.61 | 1.33 | 0.882 | > 5 | – | –
EPLC-272H (lung squamous cell carcinoma, adherent) | 0.92 | > 10 | 0.861 | > 10 | 0.894 | > 5 | 0.929 | > 5.12
ES1 (Ewing sarcoma, adherent) | 0.942 | > 10 | 0.154 | 0.055 | 0.933 | > 5 | 0.96 | > 5.12
ES6 (Ewing sarcoma, adherent) | 0.962 | > 10 | 0.914 | > 10 | 0.949 | > 5 | 0.849 | > 5.12
ES8 (Ewing sarcoma, adherent) | 0.936 | > 10 | 0.079 | < 0.0391 | 0.903 | > 5 | 0.978 | > 5.12
ESS-1 (endometrium, adherent) | 0.969 | > 10 | 0.537 | 0.778 | 0.942 | > 5 | 0.897 | > 5.12
EVSA-T (breast, adherent) | 0.915 | > 10 | 0.897 | 9.33 | 0.432 | 0.209 | 0.832 | 2.64
EW-24 (Ewing sarcoma, semi-adherent) | 0.964 | > 10 | 0.927 | > 10 | 0.968 | > 5 | 0.993 | > 5.12
EoL-1-cell (haematopoietic neoplasm, suspension) | 0.889 | 9.07 | 0.72 | 2.4 | – | – | 0.97 | > 5.12
FADU (head and neck, adherent) | 0.962 | > 10 | 0.475 | 0.537 | 0.944 | > 5 | 0.93 | > 5.12
FLO-1 (oesophagus, adherent) | 0.909 | > 10 | 0.815 | 8.94 | 0.691 | 1.37 | – | –
G-401 (kidney, adherent) | 0.932 | > 10 | 0.723 | 2.89 | 0.935 | > 5 | 0.832 | 3.73
GP5d (large intestine, adherent) | 0.972 | > 10 | 0.92 | > 10 | 0.986 | > 5 | 0.985 | > 5.12

Cell Line | AUC (XMD11-85h) | IC50 (XMD11-85h) [µM] | AUC (BMN-673) | IC50 (BMN-673) [µM] | AUC (AZD6482; [1]) | IC50 (AZD6482; [1]) [µM] | AUC (AZD6482; [2]) | IC50 (AZD6482; [2]) [µM]
GRANTA-519 (B-cell lymphoma, suspension) | 0.99 | > 10 | 0.893 | 9.81 | 0.919 | > 5 | 0.981 | > 5.12
H2369 (mesothelioma, adherent) | 0.972 | > 10 | 0.819 | 5.94 | 0.938 | > 5 | 0.504 | 0.328
H2461 (mesothelioma, adherent) | 0.903 | > 10 | 0.588 | 1.15 | 0.978 | > 5 | 0.977 | > 5.12
H2722 (mesothelioma, adherent) | 0.934 | > 10 | 0.925 | > 10 | 0.941 | > 5 | 0.933 | > 5.12
H2795 (mesothelioma, adherent) | 0.96 | > 10 | 0.748 | 3.18 | 0.89 | > 5 | 0.861 | 4.24
H2803 (mesothelioma, adherent) | 0.933 | > 10 | 0.842 | 8.72 | 0.926 | > 5 | 0.959 | > 5.12
H2804 (mesothelioma, adherent) | 0.961 | > 10 | 0.576 | 1.03 | 0.944 | > 5 | 0.929 | > 5.12
HCC1419 (breast, adherent) | 0.969 | > 10 | 0.971 | > 10 | 0.918 | > 5 | 0.94 | > 5.12
HCC1954 (breast, adherent) | 0.982 | > 10 | 0.952 | > 10 | 0.822 | 3.57 | 0.822 | 3.66
HCC-15 (lung squamous cell carcinoma, adherent) | 0.924 | > 10 | 0.915 | > 10 | 0.881 | > 5 | 0.979 | > 5.12
HCC-56 (large intestine, adherent) | 0.984 | > 10 | 0.979 | > 10 | 0.986 | > 5 | 0.972 | > 5.12
HCT-15 (large intestine, adherent) | 0.985 | > 10 | 0.925 | > 10 | 0.926 | > 5 | 0.977 | > 5.12
HSC-4 (head and neck, adherent) | 0.854 | > 10 | 0.478 | 0.536 | 0.882 | > 5 | 0.916 | > 5.12
HT-115 (large intestine, adherent) | 0.989 | > 10 | 0.972 | > 10 | 0.984 | > 5 | 0.975 | > 5.12
Hey (ovary, adherent) | 0.979 | > 10 | 0.818 | 5.24 | 0.978 | > 5 | – | –
Hs683 (glioma, adherent) | 0.987 | > 10 | 0.826 | 6.16 | 0.942 | > 5 | 0.829 | 3.22
Hs766T (pancreas, adherent) | 0.961 | > 10 | 0.953 | > 10 | 0.844 | > 5 | 0.869 | > 5.12
HuO9 (osteosarcoma, adherent) | 0.923 | > 10 | 0.666 | 1.92 | 0.856 | 4.73 | 0.743 | 1.74
HuP-T3 (pancreas, adherent) | 0.942 | > 10 | 0.91 | > 10 | 0.907 | > 5 | 0.967 | > 5.12
HuP-T4 (pancreas, adherent) | 0.908 | > 10 | 0.685 | 2.13 | 0.843 | 3.85 | 0.984 | > 5.12
IGR-1 (melanoma, adherent) | 0.928 | > 10 | 0.859 | 6.73 | 0.856 | 3.27 | 0.974 | > 5.12
